Test results: the supplement of paper PMC4604168 (melanoma cell lines)
This is one part of the list. Single values are uncertain, as repeats are few or missing.

The compounds below were run on SkMel30 (assay: cell count relative to DMSO control; melanoma cells; higher = more viable cells). Details: library dose: low library concentration; 72 h.
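Also: cell number obtained by counting DAPI-stained nuclei in high-throughput microscope images with image analysis software, screen run in 1,536-well plates.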

Row | Structure (SMILES) | cell count [%]
1 | Cc1ccc(Nc2nccc(N(C)c3ccc4c(C)n(C)nc4c3)n2)cc1S(N)(=O)=O [Pazopanib] + Cn1nnc2c(C(N)=O)ncn2c1=O [temozolomide] (first compound 0.4 µM, partner dose 2 µM) | 83.1
2 | CC1(C)CCC(c2ccc(Cl)cc2)=C(CN2CCN(c3ccc(C(=O)NS(=O)(=O)c4ccc(N[C@H](CCN5CCOCC5)CSc5ccccc5)c(S(=O)(=O)C(F)(F)F)c4)cc3)CC2)C1 + COc1ccc(C2=N[C@@H](c3ccc(Cl)cc3)[C@@H](c3ccc(Cl)cc3)N2C(=O)N2CCNC(=O)C2)c(OC(C)C)c1 [Nutlin-3] (first compound 0.4 µM, partner dose 0.1 µM) | 40.4
3 | Cc1ccc(Nc2nccc(N(C)c3ccc4c(C)n(C)nc4c3)n2)cc1S(N)(=O)=O [Pazopanib] + CNC(=O)c1cc(Oc2ccc(NC(=O)Nc3ccc(Cl)c(C(F)(F)F)c3)cc2)ccn1 [sorafenib] (first compound 0.4 µM, partner dose 0.4 µM) | 87.3
4 | CC1(C)CCC(c2ccc(Cl)cc2)=C(CN2CCN(c3ccc(C(=O)NS(=O)(=O)c4ccc(N[C@H](CCN5CCOCC5)CSc5ccccc5)c(S(=O)(=O)C(F)(F)F)c4)cc3)CC2)C1 + C=CCNC1=C2C[C@@H](C)C[C@H](OC)[C@H](O)[C@@H](C)/C=C(\C)[C@H](OC(N)=O)[C@@H](OC)/C=C\C=C(/C)C(=O)NC(=CC1=O)C2=O [Tanespimycin] (first compound 0.4 µM, partner dose 0.002 µM) | 71.5
5 | O=C(/C=C/c1cccnc1)NCCCCC1CCN(C(=O)c2ccccc2)CC1 + NCC(=O)Nc1ccc(-n2nc(C(F)(F)F)cc2-c2ccc3c(ccc4ccccc43)c2)cc1 [OSU03012] (first compound 0.01 µM, partner dose 1 µM) | 62.6
6 | CC1(C)CCC(c2ccc(Cl)cc2)=C(CN2CCN(c3ccc(C(=O)NS(=O)(=O)c4ccc(N[C@H](CCN5CCOCC5)CSc5ccccc5)c(S(=O)(=O)C(F)(F)F)c4)cc3)CC2)C1 + CCCS(=O)(=O)Nc1ccc(F)c(C(=O)c2c[nH]c3ncc(Cl)cc23)c1F [PLX4720] (first compound 0.4 µM, partner dose 0.08 µM) | 80.2
7 | CC1(C)CCC(c2ccc(Cl)cc2)=C(CN2CCN(c3ccc(C(=O)NS(=O)(=O)c4ccc(N[C@H](CCN5CCOCC5)CSc5ccccc5)c(S(=O)(=O)C(F)(F)F)c4)cc3)CC2)C1 + Nc1cccc2c1CN(C1CCC(=O)NC1=O)C2=O [lenalidomide] (first compound 0.4 µM, partner dose 1 µM) | 83.9
8 | Cc1ccc(Nc2nccc(N(C)c3ccc4c(C)n(C)nc4c3)n2)cc1S(N)(=O)=O [Pazopanib] + C=CCn1c(=O)c2cnc(Nc3ccc(N4CCN(C)CC4)cc3)nc2n1-c1cccc(C(C)(C)O)n1 [MK1775] (first compound 0.4 µM, partner dose 0.02 µM) | 70.9
9 | O=C(/C=C/c1cccnc1)NCCCCC1CCN(C(=O)c2ccccc2)CC1 + Nc1nc(F)nc2c1ncn2[C@@H]1O[C@H](CO)[C@@H](O)[C@@H]1O [fludarabine] (first compound 0.01 µM, partner dose 0.2 µM) | 31
10 | CC1(C)CCC(c2ccc(Cl)cc2)=C(CN2CCN(c3ccc(C(=O)NS(=O)(=O)c4ccc(N[C@H](CCN5CCOCC5)CSc5ccccc5)c(S(=O)(=O)C(F)(F)F)c4)cc3)CC2)C1 + CS(=O)(=O)CCNCc1ccc(-c2ccc3ncnc(Nc4ccc(OCc5cccc(F)c5)c(Cl)c4)c3c2)o1 [lapatinib] (first compound 0.4 µM, partner dose 0.8 µM) | 63.6
11 | Cc1ccc(Nc2nccc(N(C)c3ccc4c(C)n(C)nc4c3)n2)cc1S(N)(=O)=O [Pazopanib] + Nc1cccc2c1CN(C1CCC(=O)NC1=O)C2=O [lenalidomide] (first compound 0.4 µM, partner dose 1 µM) | 98.7
12 | Cc1ccc(Nc2nccc(N(C)c3ccc4c(C)n(C)nc4c3)n2)cc1S(N)(=O)=O [Pazopanib] + COC(=O)c1sccc1S(=O)(=O)Nc1ccc(Nc2ccccc2)cc1OC [GSK0660] (first compound 0.4 µM, partner dose 1 µM) | 76.8
13 | O=C(/C=C/c1cccnc1)NCCCCC1CCN(C(=O)c2ccccc2)CC1 + CN1CCN(c2ccc3nc(-c4c(N)c5c(F)cccc5[nH]c4=O)[nH]c3c2)CC1 [Dovitinib] (first compound 0.01 µM, partner dose 0.1 µM) | 84.8
14 | CC1(C)CCC(c2ccc(Cl)cc2)=C(CN2CCN(c3ccc(C(=O)NS(=O)(=O)c4ccc(N[C@H](CCN5CCOCC5)CSc5ccccc5)c(S(=O)(=O)C(F)(F)F)c4)cc3)CC2)C1 + Cn1nnc2c(C(N)=O)ncn2c1=O [temozolomide] (first compound 0.4 µM, partner dose 2 µM) | 67.8
15 | O=C(/C=C/c1cccnc1)NCCCCC1CCN(C(=O)c2ccccc2)CC1 + Nc1cccc2c1CN(C1CCC(=O)NC1=O)C2=O [lenalidomide] (first compound 0.01 µM, partner dose 1 µM) | 102
